The subject of test [1] is HSkMC (human skeletal muscle cells). As to the kind of experiment: cytotoxicity call (relative viability < 0.9). The settings on record: 10 µM.
Test [2] concerns HepG2. As to the kind of experiment: cytotoxicity call (relative viability < 0.9). Particulars: 10 µM.
For test [3], the system named is S. aureus RN4220. As to the kind of experiment: growth inhibition call (relative growth <= 0.2). The settings on record: 50 µM.

Some of the results follow.

Take `C[C@@H]1CN([C@@H](C)CO)C(=O)c2cc(NC(=O)c3ccncc3)ccc2O[C@@H]1CN(C)Cc1ccc2c(c1)OCO2`: the cytotoxicity call in test [1] and in test [2] was “inactive” each time. The growth inhibition call in test [3] was “inactive”.
For `C[C@H]1CN([C@@H](C)CO)C(=O)c2cc(-c3cccc(C(=O)N(C)C)c3)cnc2O[C@@H]1CN(C)S(=O)(=O)c1ccc(F)cc1`, the cytotoxicity call in test [1] and in test [2] was “inactive” each time. The growth inhibition call in test [3] is “inactive”.
As for `C[C@H]1CCCCO[C@H](CN(C)Cc2ccc(Cl)c(Cl)c2)[C@@H](C)CN([C@@H](C)CO)C(=O)c2cc(NS(=O)(=O)c3ccccc3)ccc2O1`, the cytotoxicity call in test [1] was “inactive”. The cytotoxicity call in test [2] is “active”. For the same compound, in test [3], the growth inhibition call was “inactive”.
In the case of `C[C@H]1CN([C@@H](C)CO)C(=O)c2cc(NC(=O)C3CC3)ccc2O[C@H]1CN(C)Cc1ccc2c(c1)OCO2`, the cytotoxicity call in test [1] and in test [2] was “inactive” each time. In addition, the growth inhibition call in test [3] was “inactive”.
Consider `C[C@@H]1CCCCO[C@@H](CN(C)Cc2ccc(Cl)c(Cl)c2)[C@H](C)CN([C@@H](C)CO)C(=O)c2cc(NS(=O)(=O)c3cccs3)ccc2O1`, for which the cytotoxicity call in test [1] and in test [2] was “inactive” throughout. Moreover, in test [3], the growth inhibition call was “inactive”.
Consider `CCC=C(C(=O)NC1C(=O)N2C(C(=O)OCOC(=O)C(C)(C)C)=C(COC(N)=O)CSC12)c1csc(N)n1.Cl` (stereo unspecified), for which the cytotoxicity call in test [1] and in test [2] was “inactive” each time. In test [3], the growth inhibition call is “inactive”.
As for `CC(C)NC(=O)N[C@H]1C=C[C@@H](CC(=O)NCCN2CCCC2)O[C@H]1CO`, the cytotoxicity call in test [1] and in test [2] was “inactive” in each case. Moreover, the growth inhibition call in test [3] was “inactive”.
Regarding `C[C@@H]1CN([C@@H](C)CO)C(=O)c2c(c3ccccc3n2C)-c2ccccc2CO[C@H]1CN(C)Cc1ccc2c(c1)OCO2`, the cytotoxicity call in test [1] and in test [2] was “inactive” each time. Besides, the growth inhibition call in test [3] was “inactive”.
On to `CNC[C@@H]1OCCCC[C@@H](C)Oc2ccc(NC(=O)c3ccncc3)cc2C(=O)N([C@H](C)CO)C[C@@H]1C`, for which the cytotoxicity call in test [1] and in test [2] was “inactive” each time. Besides, the growth inhibition call in test [3] was “inactive”.
Consider `N[C@@H]1CN(c2c(F)cc3c(=O)c(C(=O)O)cn([C@@H]4C[C@@H]4F)c3c2Cl)CC12CC2`, for which the cytotoxicity call in test [1] and in test [2] was “inactive” throughout. Also, in test [3], the growth inhibition call was “inactive”.
Turning to `C[C@@H]1CCCCO[C@@H](CN(C)Cc2ccccc2)[C@@H](C)CN([C@H](C)CO)C(=O)c2cc(NC(=O)c3ccncc3)ccc2O1`, the cytotoxicity call in test [1] and in test [2] was “inactive” each time. Moreover, the growth inhibition call in test [3] was “inactive”.
In the case of `COCC(=O)N1C[C@@H](C)[C@H](OC)CN(C)C(=O)c2cc(NC(=O)Nc3ccccc3)ccc2OC[C@@H]1C`, the cytotoxicity call in test [1] and in test [2] was “inactive” throughout. The growth inhibition call in test [3] was “inactive”.
With `C[C@H]1CN([C@@H](C)CO)S(=O)(=O)c2ccc(C3=CCCC3)cc2O[C@@H]1CN(C)S(=O)(=O)c1ccc(F)cc1`, the cytotoxicity call in test [1] and in test [2] was “inactive” throughout. For the same compound, the growth inhibition call in test [3] was “inactive”.
Consider `COc1ccc(S(=O)(=O)N(C)C[C@@H]2Oc3cc(Br)ccc3S(=O)(=O)N([C@H](C)CO)C[C@@H]2C)cc1`, for which the cytotoxicity call in test [1] and in test [2] was “inactive” each time. In addition, the growth inhibition call in test [3] was “inactive”.
In the case of `CC(C)CC#Cc1ccc2c(c1)O[C@H](CN(C)CC1CCOCC1)[C@H](C)CN([C@H](C)CO)S2(=O)=O`, the cytotoxicity call in test [1] and in test [2] was “inactive” in each case. Moreover, the growth inhibition call in test [3] was “inactive”.
Turning to `CO[C@@H](CN(C)S(=O)(=O)c1ccc(C)cc1)[C@H](C)CN([C@H](C)CO)S(=O)(=O)c1cccc(Cl)c1`, the cytotoxicity call in test [1] and in test [2] was “inactive” each time. The growth inhibition call in test [3] is “inactive”.
For the compound `O=C1c2ccccc2C(=O)c2c(O)c(O)cc(O)c21`, the cytotoxicity call in test [1] and in test [2] was “inactive” throughout. The growth inhibition call in test [3] is “inactive”.
As to `CO[C@@H]1CN(C)C(=O)c2cc(NC(=O)c3cnccn3)ccc2OC[C@@H](C)N(C(=O)c2cnccn2)C[C@H]1C`, the cytotoxicity call in test [1] and in test [2] was “inactive” in each case. In addition, the growth inhibition call in test [3] was “inactive”.
In the case of `C[C@@H]1CCCCO[C@@H](CN(C)CC2CC2)[C@H](C)CN([C@@H](C)CO)C(=O)c2cc(NC(=O)Nc3ccc(F)cc3)ccc2O1`, the cytotoxicity call in test [1] and in test [2] was “inactive” each time. Moreover, in test [3], the growth inhibition call was “inactive”.
Regarding `C[C@@H]1CCCCO[C@H](CN(C)Cc2ccc(C(=O)Nc3ccccc3N)cc2)[C@@H](C)CN([C@H](C)CO)C(=O)c2cc(NS(=O)(=O)c3ccc(Cl)cc3)ccc2O1`, the cytotoxicity call in test [1] and in test [2] was “inactive” throughout. Besides, the growth inhibition call in test [3] was “inactive”.
Turning to `COc1ccc(S(=O)(=O)Nc2ccc3c(c2)CC(=O)N([C@H](C)CO)C[C@@H](C)[C@@H](CN(C)Cc2ccc(Cl)c(Cl)c2)O3)cc1`, the cytotoxicity call in test [1] and in test [2] was “active” each time. For the same compound, the growth inhibition call in test [3] was “inactive”.
Consider `CC1CCC(C(C)C)C(O)C1` (stereo unspecified), for which the cytotoxicity call in test [1] and in test [2] was “inactive” in each case. Also, in test [3], the growth inhibition call is “inactive”.
As for `NC(=O)[C@@H]1CCCN1C(=O)[C@H](Cc1c[nH]cn1)NC(=O)[C@@H]1CCC(=O)N1`, the cytotoxicity call in test [1] and in test [2] was “inactive” throughout. In test [3], the growth inhibition call was “inactive”.
Regarding `C[C@H](CO)N1C[C@H](C)[C@@H](CN(C)C(=O)Nc2ccc(C(F)(F)F)cc2)OCCCC[C@H](C)Oc2ccc(NC(=O)Nc3cccc4ccccc34)cc2C1=O`, the cytotoxicity call in test [1] and in test [2] was “inactive” in each case. Moreover, in test [3], the growth inhibition call was “inactive”.
Turning to `C[C@H]1CN([C@@H](C)CO)C(=O)c2cccc(NC(=O)C3CCCCC3)c2O[C@H]1CN(C)Cc1ccc(C(=O)Nc2ccccc2N)cc1`, the cytotoxicity call in test [1] was “inactive”. Besides, the cytotoxicity call in test [2] is “active”. Moreover, the growth inhibition call in test [3] was “inactive”.
With `CC(C)C#Cc1ccc2c(c1)O[C@H](CN(C)C(=O)c1cccc(F)c1)[C@@H](C)CN([C@@H](C)CO)S2(=O)=O`, the cytotoxicity call in test [1] and in test [2] was “inactive” throughout. Further, the growth inhibition call in test [3] is “inactive”.
As for `Cc1noc(C)c1S(=O)(=O)Nc1ccc2c(c1)C(=O)N([C@@H](C)CO)C[C@@H](C)[C@H](CN(C)C(=O)Nc1ccc(F)cc1)OCCCC[C@H](C)O2`, the cytotoxicity call in test [1] and in test [2] was “inactive” throughout. Further, in test [3], the growth inhibition call was “inactive”.

For the origin of these results see the antibiotic and cytotoxicity screens of Wong et al. (2023).
